We go through 30 molecules from PubChem BioAssay AID1745853 (National Center for Advancing Translational Sciences (NCATS), 2022).

Common to all, as to assay: Primary Screen for Target Class Profiling of Small Molecule Inhibitors of Methyltransferases
Test [1] has as its target Glycine N-methyltransferase (Homo sapiens) (UniProt Q14749). The following applies: purified enzyme, MTase-Glo SAH luminescence; measured here: GNMT inhibition; at 40 µM; stronger effect = lower value. Summed up: (§1)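 Each enzyme was reacted with SAM and its substrate, with compounds tested once at 40 uM; SAH formed was read by MTase-Glo luminescence.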
For test [2], the target named is Guanidinoacetate N-methyltransferase (Homo sapiens) (UniProt Q14353). The note with it: purified enzyme, MTase-Glo SAH luminescence; measured here: GAMT inhibition; at 40 µM; stronger effect = lower value. Summed up:
as §1

The target in test [3] is Histamine N-methyltransferase (Homo sapiens) (UniProt P50135). The following applies: purified enzyme, MTase-Glo SAH luminescence; measured here: HNMT inhibition; at 40 µM; stronger effect = lower value. Summed up:
as §1

Test [4] deals with Nicotinamide N-methyltransferase (Homo sapiens) (UniProt P40261). The following applies: purified enzyme, MTase-Glo SAH luminescence; measured here: NNMT inhibition; at 40 µM; stronger effect = lower value. Summed up: as §1
The target of test [5] is Phenylethanolamine N-methyltransferase (Homo sapiens) (UniProt P11086). The following applies: purified enzyme, MTase-Glo SAH luminescence; measured here: PNMT inhibition; at 40 µM; stronger effect = lower value. Summed up: as §1

Each structure is given as a SMILES string. The list shows a part of the results. Shown are side measurements of this screen, not its main read-out; they come without a call.
% is set by controls: 0 for no effect and ±100 for the full control effect.

Turning to `Cc1ccc(-c2nnn3c2nc(NCCc2c[nH]c4ccccc24)c2ccccc23)cc1`, the activity change, negative = inhibition in test [1] is -0.099%; in test [2] it was 4.51%; in test [3], -0.368%; in test [4], 8.8%; in test [5], -1.86%.
The corresponding values for `Cn1ccc(C(=O)N2CCC3(CC2)CC(=O)N(C/C=C/c2ccccc2)C3)n1` are -5.56%, -7.42%, -3.09%, -8.21% and -6.66%.
`O=C(c1ccccc1)N1CCC2(CC(Cc3ccccc3)=NO2)C1` (stereo not given): the activity change, negative = inhibition in test [1] is -6.73%; in test [2], -8.66%; in test [3], -3.85%; in test [4] it was -12.1%; in test [5], -10.3%.
The corresponding values for `CC(C)OCCCNc1nc2c(S(=O)(=O)c3ccc(C(C)C)cc3)nnn2c2ccccc12` are -11.8%, -0.684%, -9.84%, -14.6% and -10.8%.
The corresponding values for `Cc1ccc2c(cnn2C(=O)CCCC(=O)N2CCN(c3cccc(Cl)c3)CC2)c1` are 7.94%, 5.4%, 8.91%, 2.58% and 0.786%.
For the molecule `CCCn1c(=O)c2ccccc2n2c(SCC(=O)Nc3ccccc3C)nnc12`, the activity change, negative = inhibition was -6.83% in test [1]; 1.52% in test [2]; 3.57% in test [3]; -6.03% in test [4]; -1.84% in test [5].
The corresponding values for `CN1C(=O)CC[C@]2(C(=O)N3CCN(c4ccccc4)CC3)CCCC[C@@H]12` are -3.6%, -4.62%, -1.9%, -4.91% and -17.7%.
The matching figures for `Cn1cccc1-c1noc(C2CCN(C(=O)CCn3cnc4ccccc43)C2)n1` (stereo not given): -4.42%, 1.1%, -1.53%, -8.46% and -3.94%.
The corresponding values for `COc1ccccc1CNC(=O)c1ccc2c(=O)nc3c(-c4ccc(C)cc4)n[nH]n3c2c1` are -9.71%, -0.04%, -5.74%, -5.18% and -8.48%.
For `CC(C)NC(=O)Cn1nc2n(C(C)C)c(=O)c3ccc(C(=O)NC4CCCC4)cc3n2c1=O`, the activity change, negative = inhibition in test [1] was found to be 1.11%; in test [2] it was 3.15%; in test [3], 2.36%; in test [4], 1.25%; in test [5], 3.12%.
The corresponding values for `CC1(C)CC2C(O)c3cocc3CC(C)(O)C2C1` (stereo not given) are 3.52%, 1.3%, 9.24%, -10.4% and 5.44%.
As for `C[S+](=O)([O-])c1ccc(-c2cnc3n[nH]c(-c4ccccc4)c3n2)cc1`, the activity change, negative = inhibition in test [1] is -44%; in test [2], -28.7%; in test [3] it was -46.2%; in test [4] it was -32.7%; in test [5] it was -14.2%.
The corresponding values for `Cc1ccccc1C(CC(=O)N1CCSCC1)c1ccccc1` (stereo not given) are -0.311%, -3.74%, 2.22%, -5.8% and 4.97%.
The corresponding values for `Cn1c(=O)c2ccc(C(=O)NC3CCCC3)cc2n2c(SCC(=O)c3ccc(F)cc3)nnc12` are 0%, -3.4%, 4%, -3.64% and -3.84%.
As to `CCOC(=O)c1ccc(N2C(=O)Cn3cccc3C2C(=O)NC2CCCCC2C)cc1` (stereo not given), the activity change, negative = inhibition in test [1] is -0.267%; in test [2] it was 0%; in test [3] it was 3.21%; in test [4], 10.2%; in test [5], -1.39%.
Turning to `O=C(NCc1ccc(Cl)cc1)c1cc2cccnn2n1`, the activity change, negative = inhibition in test [1] was -4.56%; in test [2], -2.8%; in test [3], -1.16%; in test [4] it was -8.69%; in test [5] it was -1.1%.
The corresponding values for `COCCOCc1nc(C2CCCN2C(=O)Nc2ccc(F)cc2F)no1` (stereo not given) are -0.574%, 1.01%, -0.544%, 1.75% and -0.206%.
The matching figures for `O=C(CN1CCCCC1)N1CCCC(N2CCN(Cc3ccc4c(c3)OCO4)CC2)C1` (stereo not given): 67.8%, -12.4%, -10.6%, -15.4% and -9.46%.
The corresponding values for `COc1ccc(C(=O)Cn2nc3n(Cc4ccc(C)cc4)c(=O)c4ccccc4n3c2=O)cc1` are 6.07%, 0.527%, 5.92%, 6.07% and 4.36%.
For `O=C(C1CC1)N1C[C@@H]2OCC(=O)N(Cc3ccc(F)cc3)[C@@H]2C1`, the activity change, negative = inhibition was -0.115% in test [1]; -1.94% in test [2]; -1.55% in test [3]; -3.17% in test [4]; 3.71% in test [5].
On to `CC(=O)N1CCCC(c2nc(-c3ccc4nc[nH]c4c3)no2)C1` (stereo not given), for which the activity change, negative = inhibition in test [1] was -6.22%; in test [2] it was -7.11%; in test [3], -3.54%; in test [4], -3.63%; in test [5], -3.04%.
The corresponding values for `CCC(C)NC(=O)Cn1nc2n(c1=O)CCCCC2` (stereo not given) are -2.06%, -4.85%, 0.326%, -8.65% and -3.22%.
The matching figures for `CCCn1c(=O)c2cc(Cl)ccc2n2c(=O)n(CC(=O)c3ccc(OC)c(OC)c3)nc12`: 3.12%, 0%, 9.71%, 7.01% and 3.92%.
As to `CN1C(=O)c2cc(C(=O)NCCc3ccccc3)nn2CC1(C)C(=O)NCc1ccccc1` (stereo not given), the activity change, negative = inhibition stood at 4.9% in test [1]; 0% in test [2]; 0.21% in test [3]; 8.51% in test [4]; 0.82% in test [5].
For the molecule `C[C@](Cc1ccc(O)c(O)c1)(NN)C(=O)O`, the activity change, negative = inhibition is -53.5% in test [1]; 2.6% in test [2]; -1.55% in test [3]; -8.63% in test [4]; 1.08% in test [5].
The corresponding values for `c1ccc(CCN2CCNc3cc(NCc4cccnc4)ncc3C2)cc1` are -8.45%, -3.14%, -89.1%, -19.2% and -25.4%.
The matching figures for `CCOC(=O)c1cc2n(n1)CC(C)(C(=O)NC1CCCCC1)N(c1ccc(Cl)cc1)C2=O` (stereo not given): 1.71%, 4.08%, 3.99%, -2.53% and -1.91%.
The matching figures for `O=C(NCC1CCCCCC1)C1CCN(Cc2ccccc2-c2cccnc2)CC1`: -6.43%, -4.96%, -19.9%, -15.8% and -9.17%.
Consider `CCC(C)NC(=O)c1ccc2c(=O)n(CC(C)C)c3nn(Cc4ccccc4F)c(=O)n3c2c1` (stereo not given), for which the activity change, negative = inhibition in test [1] was 2.3%; in test [2] it was 0%; in test [3], 6.87%; in test [4] it was -0.527%; in test [5], 4.7%.
The matching figures for `c1ccc2c(c1)CC(N1CCN(c3cccc4c3OCCO4)CC1)C2`: -8.93%, 1.27%, -0.126%, -11.5% and 2.24%.
